# From PubChem BioAssay AID1460 (National Center for Advancing Translational Sciences (NCATS), 2008)
# The campaign covered roughly 270,000 compounds. About 5,800 (2.1%) were called active. Inconclusive means that the source gave no clear call. Such entries were picked first, then a sample of the others. Calls come from the whole dose curve; as a rule, active = well fitted inhibition curve with a large enough effect; inconclusive = small, poorly fitted or top-dose-only effect; inactive = flat fitted curve, though single readings scatter. Potencies beside an inconclusive call are fits to weak or partial responses and may not hold up.
# Target: Microtubule-associated protein tau (Homo sapiens) (UniProt P10636)
# Test: qHTS for Inhibitors of Tau Fibril Formation, Thioflavin T Binding; note: nearly all actives have a fitted effect of over 55% in size
# Conditions: recombinant tau K18 P301L (four-repeat tau fragment), heparin-induced fibrillization, ThT fluorescence; series mostly up to 57.4 µM; activity, negative = inhibition: at the top concentration
# Description: NIH Molecular Libraries Probe Production Network [MLPCN]
# NIH Chemical Genomics Center [NCGC]
# Assay Provider: Carlo Ballatore, University of Pennsylvania
# The microtubule-associated protein tau is an abundant protein in the axons of neurons that stabilizes microtubules. With its ability to modulate microtubule dynamics, tau contributes directly or indirectly, to key structural and regulatory cellular functions. Particularly important is the influence tau exerts on axonal transport, which allows signaling molecules, trophic factors and other essential cellular constituents to travel along the axons. Under pathological conditions, tau becomes sequestered into insoluble aggregates called neurofibrillary tangles. This phenomenon is believed to have pathological consequences by promoting axonal transport deficits that ultimately lead to synaptic dysfunction and neuronal loss. To identify inhibitors of tau aggregation, a heparin-induced tau fibril formation assay was used that employed a recombinantly expressed fragment of tau, K18 (Q242-E372), bearing a P301L mutation (Gustke et al. 1994; Hong et al. 1998). This assay monitors tau fibrillization by Thioflavin T (ThT) fluorescence.
# Gustke, N., B. Trinczek, et al. (1994). "Domains of tau protein and interactions with microtubules." Biochemistry 33(32): 9511-22.
# Hong, M., V. Zhukareva, et al. (1998).
# Li, W. and V. M. Lee (2006).
# von Bergen, M., S. Barghorn, et al. (2001). "Mutations of tau protein in frontotemporal dementia promote aggregation of paired helical filaments by enhancing local beta-structure." J Biol Chem 276(51): 48165-74.
# NCGC Assay Protocol Summary:
# For screening, 2 uL/well human K18 P301L (15 uM unlabeled and 0.24 uM Alexa 594-labeled tau, final concentrations) in reagent buffer (100 mM sodium acetate pH 7) was dispensed into black solid 1536-well plates (Grenier) using a solenoid-based dispenser. Following transfer of 23 nL compound or DMSO vehicle by a pin tool, 2 uL/well heparin (20 uM final concentration) in reagent buffer was added and the plate centrifuged 15 s at 1000 RPM. Plates were incubated 6 hr at 37 C and then 1 uL/well ThT (30 uM final concentration) was added. After a 1 hr ambient incubation, the plates were read by an Envision (Perkin Elmer) to monitor ThT fluorescence (450/8 nm excitation and 510/23 nm emission).
# Keywords: NIH Roadmap, MLPCN, MLI, MLSMR, NCGC, qHTS, tau, tauopathies, Alzheimer's disease, fibril, neurodegeneration, aggregation
# % is set by controls: 0 for no effect and ±100 for the full control effect; potency is the fitted concentration of half-maximal effect; tags give direction and shape of the fitted curve.
# Chain of UniProt P10636 (P10636 whole entry, looked up): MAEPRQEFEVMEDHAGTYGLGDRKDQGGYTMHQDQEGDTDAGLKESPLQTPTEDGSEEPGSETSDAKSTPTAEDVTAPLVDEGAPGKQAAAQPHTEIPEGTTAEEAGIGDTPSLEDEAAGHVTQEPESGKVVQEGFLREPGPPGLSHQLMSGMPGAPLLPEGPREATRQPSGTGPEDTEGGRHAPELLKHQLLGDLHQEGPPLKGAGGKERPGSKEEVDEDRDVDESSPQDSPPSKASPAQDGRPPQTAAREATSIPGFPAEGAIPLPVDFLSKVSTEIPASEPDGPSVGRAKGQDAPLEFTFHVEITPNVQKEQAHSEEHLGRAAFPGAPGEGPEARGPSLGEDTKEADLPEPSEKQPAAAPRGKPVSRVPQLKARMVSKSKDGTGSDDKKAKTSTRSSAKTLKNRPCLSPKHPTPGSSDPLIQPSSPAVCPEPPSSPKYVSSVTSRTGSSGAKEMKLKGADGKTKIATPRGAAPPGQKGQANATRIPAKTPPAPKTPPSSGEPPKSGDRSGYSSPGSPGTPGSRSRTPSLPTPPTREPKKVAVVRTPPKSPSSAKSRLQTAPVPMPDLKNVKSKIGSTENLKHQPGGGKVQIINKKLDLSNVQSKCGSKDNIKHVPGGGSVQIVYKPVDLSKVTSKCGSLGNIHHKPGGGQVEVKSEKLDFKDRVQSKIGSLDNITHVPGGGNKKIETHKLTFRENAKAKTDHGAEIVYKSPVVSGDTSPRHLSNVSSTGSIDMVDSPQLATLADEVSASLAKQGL
SMILES,Potency,"activity, negative = inhibition"
CCCCC/C=C\C/C=C\C/C=C\C/C=C\CCCC(=O)NCc1ccc(O)c(OC)c1,"inconclusive: 14.1 µM [inhibitor, partial curve]",
O=C1NC(=O)N(c2ccccc2)C(=O)/C1=C\C=C\c1ccccc1,active: 11.2 µM,
C/C=C(/C)C(=O)O[C@H]1C(C)=C2C([C@@H]1OC(=O)CCCCCCC)[C@@](C)(OC(C)=O)C[C@@H](OC(=O)CCC)[C@@]1(O)[C@H]2OC(=O)[C@@]1(C)O (stereo not given in full),"inconclusive: 35.5 µM [inhibitor, single point]",
C#C[C@]1(O)CC[C@H]2[C@@H]3CCC4=CC(=O)CC[C@]4(C)[C@H]3CC[C@@]21C,,inactive: -6.73%
O=C(O)CCn1cc(C=C2C(=O)NC(=O)NC2=O)c(-c2ccc(Br)cc2)n1,"inconclusive: 5.01 µM [inhibitor, partial curve]",
CC1=C[C@@H]2c3cccc4[nH]cc(c34)C[C@H]2N(C)C1,active: 15.8 µM,
CC(C)[N+](C)(CCC(C(N)=O)(c1ccccc1)c1ccccc1)C(C)C,inactive,
COc1cc(-c2nc3ccc(Cl)cn3c2Nc2ccc3c(c2)OCCO3)ccc1O,"inconclusive: 11.2 µM [inhibitor, partial curve]",
CN1CCN(c2nc3ccccn3c(=O)c2C=C2C(=O)N(C)C(=O)N(C)C2=O)CC1,"inconclusive: 11.2 µM [inhibitor, partial curve]",
COC(=O)C(O)(c1ccc(NC(=S)NC(=O)c2ccc(Cl)cc2Cl)c(C)c1)C(F)(F)F (stereo not given),"inconclusive: 17.8 µM [inhibitor, single point]",
CCN(CC)CCOC(=O)c1ccc(N=Cc2c(O)[nH]c(=O)[nH]c2=O)cc1,"inconclusive: 39.8 µM [inhibitor, partial curve]",
Cc1cc(C)n(-c2ccc(NN=C(C#N)C#N)cc2)n1,active: 5.01 µM,
CC(C)CC(N(C)C)C1(c2ccc(Cl)cc2)CCC1 (stereo not given),"inconclusive: 31.6 µM [inhibitor, single point]",
CCC(CC)N1CCN(C(=O)Cc2ccccc2)CC1,,inactive: -6.14%
CCOC(=O)c1ccc(NC(=O)c2cccn(Cc3ccc(C)cc3)c2=O)cc1,,inactive: -7.55%
Cc1ccc2oc(-c3ccccc3)cc(=O)c2c1,"inconclusive: 8.91 µM [inhibitor, full curve]",
C=C1C(=O)O[C@@H]2C[C@@H](C)[C@@H]3C4OC4C(=O)[C@@]3(C)[C@@H](O)[C@H]12 (stereo not given in full),active: 12.6 µM,
O=C1NC(=O)C2=Cc3ccc(O)cc3OC2(O)N1 (stereo not given),"inconclusive: 39.8 µM [activator, single point]",
COc1ccc(/C=C2/Sc3ccc(C(=O)N4CCc5ccccc5C4)cc3NC2=O)cc1,"inconclusive: 14.1 µM [inhibitor, partial curve]",
CC(=O)OC(C)(C)/C=C/C(=O)[C@](C)(O)[C@H]1[C@H](O)C[C@@]2(C)[C@@H]3CC=C4[C@H](C[C@H](O)C(=O)C4(C)C)[C@]3(C)C(=O)C[C@]12C,"inconclusive: 22.4 µM [inhibitor, partial curve]",

SMILES,Potency,"activity, negative = inhibition"
O=C1NC(=O)N(c2ccccc2)C(=O)/C1=C\c1ccccc1[N+](=O)[O-],"inconclusive: 5.01 µM [inhibitor, partial curve, poor fit]",
CC(/C=C(\C)Nc1ccccc1)=Nc1ccccc1,,inactive: -15.6%
COc1ccc(Cn2c(O)c(C=NCCN3CCOCC3)c(=O)[nH]c2=O)cc1,,inactive: -6.67%
C=CCN1C(=O)NC(=O)/C(=C/c2cnc(SC)nc2)C1=O,"inconclusive: 11.2 µM [inhibitor, partial curve]",
CC(=O)OC1CC[C@@]2(C)C3CC(=O)[C@]4(C)C(C(C)=O)=CCC4C3CC[C@H]2C1 (stereo not given in full),"inconclusive: 1.26 µM [inhibitor, full curve]",
CCc1ccccc1N1C(=O)/C(=C/c2ccc(N3CCN(C)CC3)o2)C(=O)NC1=S,"inconclusive: 25.1 µM [inhibitor, partial curve]",
COc1cc(OC)cc(C(=O)Nc2nc(-c3nnn(-c4ccc(C)cc4)c3C)ns2)c1,"inconclusive: 6.31 µM [inhibitor, partial curve]",
CCOc1ccc(-n2c(O)c(C=Nc3ccc(N4CCOCC4)cc3)c(=O)[nH]c2=O)cc1,"inconclusive: 28.2 µM [inhibitor, partial curve]",
Nc1ccc(C2(c3ccc(N)cc3)c3ccccc3-c3ccccc32)cc1,"inconclusive: 28.2 µM [inhibitor, partial curve]",
O=C(NCc1c(-n2cccc2)sc2c1CCCC2)Nc1cccc(C(F)(F)F)c1,"inconclusive: 22.4 µM [inhibitor, single point]",
Cc1ccc(Cn2cccc(C(=O)Nc3nnc(C)s3)c2=O)cc1,"inconclusive: 39.8 µM [inhibitor, single point]",
O=Cc1cn(Cc2ccc([N+](=O)[O-])cc2)c2ccccc12,"inconclusive: 0.891 µM [activator, full curve, poor fit]",
CCOC(=O)C1(CCc2ccccc2)CCN(Cc2ccco2)CC1,,inactive: -5.91%
CC1N(C)c2cc(NC(=O)c3ccco3)c(P(=O)(Nc3ccc([N+](=O)[O-])cc3)N3CCOCC3)cc2C1(C)C (stereo not given),"inconclusive: 28.2 µM [inhibitor, single point]",
N#CC1=C(N)Oc2c(c(=O)oc3ccccc23)C1c1ccncc1 (stereo not given),"inconclusive: 39.8 µM [inhibitor, single point]",
Cc1sc2ncn(CC(=O)NCCCC(=O)N3CCC4(CC3)OCCO4)c(=O)c2c1C,,inactive: -1.78%
Cn1c(O)c(C(c2ccccn2)c2c(O)n(C)c(=S)[nH]c2=O)c(=O)[nH]c1=S,"inconclusive: 28.2 µM [inhibitor, partial curve, poor fit]",
O=C(OCC(=O)N1CCN(c2ccccc2)CC1)c1cnc(Cl)c(Cl)c1,"inconclusive: 11.2 µM [inhibitor, partial curve]",
Cn1ccnc1P(=S)(c1nccn1C)N1CCOCC1,,inactive: -2.9%
O=C1NC(=O)N(c2ccc(F)cc2)C(=O)/C1=C/c1ccsc1,"inconclusive: 3.16 µM [inhibitor, full curve]",
